To fix the notation:
B1: PhoQ; a variant is named by its letters at X, in order, P23837 (parent)
chain: MKKLLRLFFPLSLRVRFLLATAAVVLVLSLAYGMVALIGYSVSFDKTTFRLLRGESNLFYTLAKWENNKLHVELPENIDKQSPTMTLIYDENGQLLWAQRDVPWLMKMIQPDWLKSNGFHEIEADVNDTSLLLSGDHSIQQQLQEVREDDDDAEMTHSVAVNVYPATSRMPKLTIVVVDTIPVELKSSYMVWSWFIYVLSANLLLVIPLLWVAAWWSLRPIEALAKEVRELEEHNRELLNPATTRELTSLVRNLNRLLKSERERYDKYRTTLTDLTHSLKTPLXXLQXXLRSLRSEKMSVSDAEPVMLEQISRISQQIGYYLHRASMRGGTLLSRELHPVAPLLDNLTSALNKVYQRKGVNISLDISPEISFVGEQNDFVEVMGNVLDNACKYCLEFVEISARQTDEHLYIVVEDDGPGIPLSKREVIFDRGQRVDTLRPGQGVGLAVAREITEQYEGKIVAGESMLGGARMEVIFGRQHSAPKDE

Drawing on a collection of fitness landscapes (doi:10.1126/science.1257360), this text covers enrichment ratio for 153 variants.

This is one part of the list. A value given as a limit tells only on which side of the number the result lay.

The variants in this test derive from B1. Description: enrichment ratio after two sorts for PhoP signalling (ratio (wild type AVST 3.29)); higher = more functional. The settings on record: with PhoP (E. coli).
As to ARYQ, the enrichment ratio is at most 0.25. Under QQGM stands at most 0.25; under KYCV, at most 0.25; under FAFI, at most 0.25. As to GKWV, the enrichment ratio is at most 0.25. With NKDK, the enrichment ratio is at most 0.25. Under GYMM stands 0.253; under KCGM, at most 0.25; under PVLT, at most 0.25. Under LFAF stands at most 0.25; under VYTV, at most 0.25; under AFQW, at most 0.25.

Take NVRI: the enrichment ratio is at most 0.25.

With QREI, the enrichment ratio was at most 0.25. In the case of LKQN, the enrichment ratio is at most 0.25.

With MQNW, the enrichment ratio was at most 0.25. As for EMFK, the figure is at most 0.25; as for GWEN, at most 0.25. Under YHWD stands at most 0.25. Under VKDT stands at most 0.25; under TWYE, at most 0.25; under VRCR, at most 0.25. As to PKFM, the enrichment ratio was at most 0.25. In the case of YYPA, the enrichment ratio is at most 0.25. Turning to SDFL, the enrichment ratio was at most 0.25.

Regarding WNNV, the enrichment ratio is at most 0.25. Take PSST: the enrichment ratio was at most 0.25.

Consider WGCF, for which the enrichment ratio was at most 0.25. Under KRSS stands at most 0.25; under KTMP, at most 0.25. As for HATL, the enrichment ratio stood at 2.1. Under LVCR stands 0.326; under NMQH, at most 0.25. As for TMPR, the figure is at most 0.25. As for YVGG, the figure is at most 0.25; as for KCCW, at most 0.25; as for MAMM, 2.28. Consider LLEM, for which the enrichment ratio is at most 0.25. Under EQWN stands at most 0.25; under NSTH, at most 0.25. As for ISNW, the figure is at most 0.25; as for FKPC, at most 0.25; as for IHAY, at most 0.25. Under VICI stands at most 0.25; under YELF, 0.264. On to MDLI, for which the enrichment ratio is at most 0.25.

On to DLRI, for which the enrichment ratio was at most 0.25.

As for RDYV, the enrichment ratio was at most 0.25.

With FRQQ, the enrichment ratio is at most 0.25.

Regarding STGQ, the enrichment ratio was 4.94. Regarding YART, the enrichment ratio was at most 0.25. As for SACL, the figure is 11. Under NLCN stands at most 0.25; under ERMD, at most 0.25; under NMAK, at most 0.25.

In the case of VRLE, the enrichment ratio is at most 0.25. Under FCHS stands at most 0.25; under WRSC, at most 0.25. GPMC: the enrichment ratio was at most 0.25.

IHYI: the enrichment ratio is at most 0.25. Under GAQK stands at most 0.25. As to HIPR, the enrichment ratio is at most 0.25. As for WLIK, the figure is at most 0.25; as for IGWN, at most 0.25; as for ELWV, at most 0.25. As for NREM, the figure is at most 0.25; as for AKTC, 30.2; as for LRIP, at most 0.25. As for EMKG, the figure is at most 0.25; as for TNEP, at most 0.25. For GQTK, the enrichment ratio was at most 0.25. As for QCSW, the figure is at most 0.25; as for DPMC, at most 0.25. As for ERWD, the figure is at most 0.25; as for TVLL, at most 0.25. As for TDWY, the figure is at most 0.25; as for RELG, at most 0.25; as for MATI, 6.64. As for PHRT, the enrichment ratio was at most 0.25.

AKLR: the enrichment ratio is at most 0.25. Under LWWS stands at most 0.25. As for GLPL, the figure is at most 0.25; as for DEVF, at most 0.25.

With GMML, the enrichment ratio is 9.66. As for SNFS, the enrichment ratio was at most 0.25. Regarding WFRI, the enrichment ratio was at most 0.25. As for TIWT, the figure is 5.58.

Turning to YNDF, the enrichment ratio was at most 0.25.

In the case of NKSL, the enrichment ratio was at most 0.25.

With VNMH, the enrichment ratio amounted to 0.826. As for RDDT, the enrichment ratio was at most 0.25. As for RKMY, the figure is at most 0.25. Under YEKF stands at most 0.25. Under QTSY stands 4.24; under EARW, at most 0.25; under LDQY, at most 0.25.

With GNPA, the enrichment ratio was at most 0.25. Take TDYQ: the enrichment ratio is at most 0.25.

On to FCRQ, for which the enrichment ratio was at most 0.25. As for FEGH, the figure is at most 0.25.

On to TYQD, for which the enrichment ratio was at most 0.25. AQVC: the enrichment ratio is 9.47. Under RRAL stands at most 0.25; under WSEI, at most 0.25. As to VRCF, the enrichment ratio is at most 0.25. As for KVQQ, the figure is at most 0.25; as for KLMP, at most 0.25; as for LRSN, at most 0.25. As for TSHK, the figure is at most 0.25.

Turning to EKAN, the enrichment ratio is at most 0.25. As for EKPY, the figure is at most 0.25. As for HAGC, the figure is at most 0.25; as for ILEK, at most 0.25; as for AMKC, at most 0.25. Under WGGV stands at most 0.25; under KDQL, at most 0.25.

ADHT: the enrichment ratio was at most 0.25.

Regarding FDPY, the enrichment ratio was at most 0.25.

Turning to YTCI, the enrichment ratio was determined as 0.979. As for IMHS, the figure is at most 0.25; as for LFHA, at most 0.25. As for GLRT, the enrichment ratio is at most 0.25. As for WNSS, the figure is at most 0.25. Under LDHD stands at most 0.25; under TELF, 12.2; under VMCP, at most 0.25.

With RYKF, the enrichment ratio came to 0.686. Under DPTT stands at most 0.25. Consider DMNC, for which the enrichment ratio was at most 0.25. As for VDLV, the figure is at most 0.25. Regarding KDIQ, the enrichment ratio was at most 0.25.

In the case of ASNI, the enrichment ratio came to 8.33. Under HASI stands at most 0.25; under CKFF, at most 0.25; under TPMD, at most 0.25. For the variant DRDW, the enrichment ratio was at most 0.25. For the variant PMCT, the enrichment ratio was at most 0.25. As for ACCA, the figure is 7.21; as for MANK, at most 0.25. With HWMS, the enrichment ratio was at most 0.25. In the case of TNDQ, the enrichment ratio is at most 0.25.

Consider LQQT, for which the enrichment ratio is at most 0.25. Under RYCI stands at most 0.25; under PMIL, at most 0.25; under KCFL, at most 0.25. On to IRWG, for which the enrichment ratio was at most 0.25.

With TAAN, the enrichment ratio amounted to 1.79. Under IVGT stands at most 0.25; under MYRW, at most 0.25; under PKYT, at most 0.25. As for NCYF, the figure is at most 0.25. Consider MARQ, for which the enrichment ratio is at most 0.25.

Turning to IPSA, the enrichment ratio is at most 0.25.
